Measured values taken from PubChem BioAssay AID1645886 (National Center for Advancing Translational Sciences (NCATS), 2021).
Where “and” joins values, the source holds several entries; their conditions need not be identical. Equal values may be shown once. Out of some 16,000 compounds screened, about 260 (1.6%) were called active. The inconclusive results got no clear call from the source; some entries with a clear call stand among them for comparison. The call rests on the fitted dose curve; in most records, active means well fitted inhibition curve with a large enough effect; inconclusive means small, poorly fitted or top-dose-only effect; inactive means no such curve, though single readings can be large or run the other way. Potencies of inconclusive entries are doubtful fits and often do not repeat.
Further: nearly all actives have a fitted effect of over 40% in size.
Potency means the concentration at half of the fitted maximal effect; tags describe the fitted curve by direction and shape.

These compounds were tested against Rap guanine nucleotide exchange factor 4 (Homo sapiens) (UniProt Q8WZA2) (assay: Validation qHTS for antagonist of cAMP-regulated guanine nucleotide exchange factor 4 (EPAC2)). Conditions: EPAC2 Rap1B BODIPY-GDP exchange, fluorescence; activity, negative = inhibition: at 112 µM (top of the series).
UniProt Q8WZA2, sequence (Q8WZA2 whole entry, looked up): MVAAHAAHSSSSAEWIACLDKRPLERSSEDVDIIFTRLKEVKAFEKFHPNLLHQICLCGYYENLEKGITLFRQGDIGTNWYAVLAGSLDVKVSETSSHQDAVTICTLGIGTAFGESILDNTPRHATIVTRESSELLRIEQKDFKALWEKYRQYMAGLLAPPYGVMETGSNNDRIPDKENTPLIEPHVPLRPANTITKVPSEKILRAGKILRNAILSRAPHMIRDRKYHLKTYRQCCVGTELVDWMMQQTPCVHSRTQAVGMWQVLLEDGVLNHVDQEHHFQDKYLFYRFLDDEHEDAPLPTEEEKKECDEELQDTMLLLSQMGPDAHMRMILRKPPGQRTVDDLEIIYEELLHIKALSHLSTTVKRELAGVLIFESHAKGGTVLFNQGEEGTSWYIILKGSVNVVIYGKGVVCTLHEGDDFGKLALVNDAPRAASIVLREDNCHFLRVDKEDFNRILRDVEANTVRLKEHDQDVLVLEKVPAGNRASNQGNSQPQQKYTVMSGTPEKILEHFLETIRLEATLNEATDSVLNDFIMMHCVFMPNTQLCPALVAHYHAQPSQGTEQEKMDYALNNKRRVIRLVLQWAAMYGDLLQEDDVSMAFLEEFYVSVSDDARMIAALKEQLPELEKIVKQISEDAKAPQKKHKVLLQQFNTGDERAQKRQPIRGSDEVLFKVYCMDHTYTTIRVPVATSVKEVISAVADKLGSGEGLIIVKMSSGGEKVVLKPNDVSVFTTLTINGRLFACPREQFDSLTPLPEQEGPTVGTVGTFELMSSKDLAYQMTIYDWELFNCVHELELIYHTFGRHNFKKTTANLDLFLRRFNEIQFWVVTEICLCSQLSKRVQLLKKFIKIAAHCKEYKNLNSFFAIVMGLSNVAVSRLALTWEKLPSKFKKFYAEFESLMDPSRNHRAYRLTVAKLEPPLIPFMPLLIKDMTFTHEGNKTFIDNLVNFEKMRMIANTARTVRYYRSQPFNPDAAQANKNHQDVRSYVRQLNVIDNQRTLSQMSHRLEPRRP
Description: Principle Investigator: Xiaodong Cheng Ph.D. The University of Texas Medical Branch, […], TX MLPCN Grant: NS066510 In multi-cellular eukaryotic organisms, the effects of cAMP are transduced by two ubiquitously-expressed intracellular cAMP receptors, the classic protein kinase A/cAMP-dependent protein kinase (PKA/cAPK) and the more recently discovered exchange protein directly activated by cAMP/cAMP-regulated guanine nucleotide exchange factor (EPAC/cAMP-GEF). Both PKA and EPAC are ubiquitously expressed in all tissues, and an increase in intracellular cAMP levels will lead to the activation of both PKA and EPAC. Therefore, careful dissections of the individual role and relative contribution of EPAC and PKA within the overall cAMP signaling in various model systems are critical for further elucidating the mechanism of cAMP signaling. To date no EPAC-specific antagonists and agonist, as well as isoform-specific agonists have been reported, and developing EPAC-specific pharmacological probes to determine the physiological functions that EPAC play in the overall cAMP-mediated signaling remains a major challenge within the research field. Furthermore, identified regulators of EPAC may lead to new mechanism-based therapeutic strategies specifically targeting the EPAC / cAMP-signaling components as EPAC has been implicated to play important roles in major human pathological conditions such as diabetes, heart disease, and cancer. This qHTS will be used to screen the Molecular Libraries Small Molecule Repository (MLSMR) as a concentration-titration series using the NCGC unique quantitative screening (qHTS) platform to find activators for EPAC1. In addition, this assay will also be used as a counterscreen for the EPAC2 qHTS. This fluorescent based assay is developed and validated for EPAC1 that measures exchange using EPAC effector Rap1 complex with BODIPY-GDP, a GDP analog with a tethered fluorophores. Activators are identified by monitoring the change in fluorescence signal as the exchanged free BODIPY-GDP has a reduced fluorescence compared to Rap1-bound BODIPY-GDP. Increase in signal (activation) is the desired outcome for the EPAC1 agonist while no activity in this assay is desired for the EPAC2 agonist counterscreen. Reference: [1] de Rooij, J., Zwartkruis, F. J., Verheijen, M. H., Cool, R. H., Nijman, S. M., Wittinghofer, A., and Bos, J.L. (1998) Nature 396, 474-477.
Briefly, three uL of reagents (100 nM EPAC2, 250 nM RAP1B-BODIPY-GDP, 50 uM GDP) were dispensed into a 1536-well Greiner black solid-bottom medium binding assay plate. Controls and test compounds (23 nL) were transferred to the plate via a Kalypsys pin tool equipped with a 1536-pin array. The plates were centrifuged at 1,000 rpm for 15 seconds followed by 5 minute incubation at room temperature. The assay plates were read at 5 minute intervals for 30 minutes in the ViewLux plate reader using 480nm excitation and 540nm emission filters. The results were normalized to the agonist positive control of 6.5 mM cAMP.
`C#Cc1cccc(Nc2ncnc3cc(OCCOC)c(OCCOC)cc23)c1` was tested, and the Potency was inconclusive: 20 µM [inhibitor, partial curve, poor fit]. In the case of `Cc1onc(-c2ccccc2Cl)c1C(=O)N[C@@H]1C(=O)N2[C@@H]1SC(C)(C)[C@@H]2C(=O)O`, the “activity, negative = inhibition” value was inactive: 24.1% [at 56.6 µM]. In the case of `C=C1C2CC[C@@]3(C)C(c4ccoc4)OC(=O)C[C@@]13OC1CC(OC(C)=O)C(C)(C)C(CC(=O)OC)[C@@]12C` (stereo not given in full), the Potency was inconclusive: 6.31 µM [inhibitor, full curve]. In the case of `O=C(/C=C/c1ccc(O)cc1)c1ccccc1O`, the Potency was inconclusive: 50.1 µM [inhibitor, partial curve, poor fit]. In the case of `Cc1cccc(C(=O)NCc2nc(-c3cccc(NC(=O)c4ccoc4C)c3)oc2C)n1`, the “activity, negative = inhibition” value was inactive: -13.8%. For `COc1ccc(C(=O)N2CCC3(CCCN(c4ccncc4)C3)CC2)cc1`, the “activity, negative = inhibition” value was inactive: -25%. In the case of `Cc1ccc(CN2[C@@H]3c4ccccc4C[C@@H]3OCCS2(=O)=O)cc1`, the Potency was inconclusive: 56.2 µM [inhibitor, partial curve, poor fit]. In the case of `COc1cc(OC)c(OC)cc1CN1CCCC(n2cc(C(=O)N3CCCCC3)nn2)C1` (stereo not given), the “activity, negative = inhibition” value was inactive: 11.6%. With `CCCCCCC/C=C\CCCCCCCCC(=O)O` the Potency was active: 28.2 µM. With `COC(=O)N1CCC2(CCN(C(=O)Nc3ccccc3)CC2)CC1` the Potency was inconclusive: 0.631 µM [inhibitor, full curve, poor fit]. In the case of `COc1cccc(C(=O)NCC2Cc3cccc(-c4cccnc4)c3O2)c1` (stereo not given), the Potency was inconclusive: 100 µM [inhibitor, partial curve, poor fit]. With `Cc1c(-c2ccccc2)oc2c(C(=O)OCCN3CCCCC3)cccc2c1=O` the Potency was inconclusive: 15.8 µM [inhibitor, single point]. `COc1c2c(c(C(=O)/C=C/C(C)=C/c3ccccc3)c3c1OCO3)CCN(C)C2` was tested, and the Potency was inconclusive: 70.8 µM [inhibitor, single point]. For `Nc1ncnc2c1nc(Cl)n2C1OC(CO)C(O)C1O` (stereo not given), the “activity, negative = inhibition” value was inactive: -4.41%. For `NCCCC(=O)O`, the Potency was inconclusive: 4.47 µM [inhibitor, full curve, poor fit]. For `COc1ccc(C(=O)N2CCC[C@@]3(CCN(C(=O)Nc4cccc(F)c4)C3)C2)cc1`, the “activity, negative = inhibition” value was inactive: -4.12%. With `NCCCNCCCCN(CCCN)/[N+]([O-])=N/O` the Potency was inconclusive: 50.1 µM [inhibitor, partial curve, poor fit]. `COC1/C=C/OC2(C)Oc3c(C)c(O)c4c(O)c(c(/C=N/N5CCN(C)CC5)c(O)c4c3C2=O)NC(=O)/C(C)=C/C=C/C(C)C(O)C(C)C(O)C(C)C(OC(C)=O)C1C` (stereo not given) was tested, and the Potency was inconclusive: 89.1 µM [inhibitor, partial curve]. In the case of `COCc1ccc(C(=O)N2CCOc3ccc(CN4CCN(c5ccc(F)cc5)CC4)cc3C2)o1`, the “activity, negative = inhibition” value was inactive: -8.15%. `COc1cccc(CNc2ncnc3sc(C(=O)N4CCOCC4)c(C)c23)c1OC` was tested, and the Potency was inconclusive: 100 µM [inhibitor, single point]. With `c1ccc2sc(-c3cc4c(c(OC5CCOC5)c3)OCCN(Cc3cccn3-c3nccs3)C4)nc2c1` (stereo not given) the “activity, negative = inhibition” value was inactive: -14.1%. `CC(=O)N[C@@H](Cc1c[nH]c2ccccc12)C(=O)OCc1cc(C(F)(F)F)cc(C(F)(F)F)c1` was tested, and the Potency was inconclusive: 39.8 µM [inhibitor, partial curve, poor fit]. For `O=C(c1cc(C(F)(F)F)cc(C(F)(F)F)c1)N1CCC[C@@]2(CCN(c3ccccn3)C2)C1`, the Potency was inconclusive: 35.5 µM [inhibitor, full curve, poor fit]. In the case of `CN1CCC(=O)N([C@H](CO)Cc2ccccc2)CC1`, the “activity, negative = inhibition” value was inactive: 1.88%. For `CCC(O)CNC(=O)c1cnn(-c2nccc(-c3cc(C)sc3C)n2)c1C1CC1` (stereo not given), the Potency was inconclusive: 1.12 µM [inhibitor, full curve, poor fit]. `C[C@@H]1[C@H](c2ccccc2)OCCS(=O)(=O)N1Cc1cccc(C(F)(F)F)c1` was tested, and the Potency was inconclusive: 25.1 µM [inhibitor, full curve]. `NC(N)=NCCC[C@H](N)C(=O)O` was tested, and the Potency was inconclusive: 89.1 µM [inhibitor, partial curve, poor fit]. For `N#Cc1cccc(NC(=O)N2CCC3(CC2)CCN(C(=O)c2ccco2)CC3)c1`, the Potency was inconclusive: 79.4 µM [inhibitor, partial curve, poor fit]. In the case of `Cc1cnc(-n2ncc(C(=O)NCC3COCCO3)c2C2CC2)nc1-c1cccs1` (stereo not given), the Potency was inconclusive: 22.4 µM [inhibitor, single point]. With `N[C@H](C(=O)O)[C@@H](O)c1ccc(O)c(O)c1` the Potency was active: 79.4 µM. For `Cc1cc(C)c2nccc(C)c2c1`, the Potency was inconclusive: 89.1 µM [inhibitor, single point]. In the case of `COc1cc(C)c2c(c1C=O)Oc1c(c(C)c(O)c3c1C(O)OC3=O)OC2=O` (stereo not given), the Potency was inconclusive: 50.1 µM [inhibitor, partial curve] and inconclusive: 50.1 µM [inhibitor, partial curve, poor fit]. With `CC1(COc2ccc(C[C@H]3SC(=O)NC3=O)cc2)CCCCC1` the Potency was inconclusive: 35.5 µM [inhibitor, full curve]. With `COc1ncc2nc(CCc3ccccc3)c(=O)n(-c3ccccc3)c2n1` the “activity, negative = inhibition” value was inactive: -44.3%. `COc1ccc(OC)c(/C=C/c2nc3ccccc3nc2C)c1` was tested, and the Potency was inconclusive: 1.78 µM [inhibitor, full curve, poor fit]. For `CC(C)c1c(C(=O)N(C)CC2CCCN(C)C2)cnn1-c1nccc(-c2cccs2)n1` (stereo not given), the Potency was inconclusive: 7.08 µM [inhibitor, full curve]. With `CC(=O)c1ccc(F)c(-c2cc(C)cc3c2OC(CNC(=O)Cc2ccc4c(c2)OCO4)C3)c1` (stereo not given) the Potency was inconclusive: 5.62 µM [inhibitor, full curve, poor fit]. In the case of `COC(=O)[C@@H]1[C@@H]2C[C@H]3c4[nH]c5ccccc5c4CCN3C[C@@H]2CC[C@@H]1O`, the Potency was inconclusive: 63.1 µM [inhibitor, partial curve, poor fit]. In the case of `CC(C)(C)OC(=O)NS(=O)(=O)NOCc1ccccc1`, the “activity, negative = inhibition” value was inactive: -25.7%. In the case of `COc1ccccc1C1CN(CC(=O)N2CCC(N3CCOCC3)CC2)Cc2ccccc2O1` (stereo not given), the “activity, negative = inhibition” value was inactive: -1.8%.
